Laboratory results published in PubChem BioAssay AID1508624 (National Center for Advancing Translational Sciences (NCATS), 2021).
The campaign covered roughly 48,000 compounds. About 120 (0.25%) were called active. Not shown: some 4% with an inconclusive outcome. The call rests on the fitted dose curve; in most records, active means well fitted activation curve with a large enough effect; inconclusive means small, poorly fitted or top-dose-only effect, or another doubt; inactive means no such curve, though single readings can be large or run the other way. Some of the results follow.

Assay: Primary qHTS for Identification of Small Molecule Activators of Huntingtin-Antisense Promoter Activity; further: nearly all actives have a fitted effect of over 55% in size
Conditions: HEK293 HTT-AS promoter firefly luciferase reporter, 24 h; series mostly up to 57.5 µM; activity change, positive = activation: at the top concentration
In short: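 HEK293 cells carrying firefly luciferase reporters were seeded at 2,500 per well in Opti-MEM and cultured for 24 h. They were then treated with compounds at up to 57.5 uM final for 24 h at 37 degrees C before Dual-Glo luminescence readout.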

Activity change, positive = activation, inactive:
O=C(NCCO)C(=O)Nc1c2c(nn1-c1ccc(F)cc1)CSC2 -5.7%
C[C@]12CCC(=O)C=C1CC[C@@H]1[C@@H]2[C@@H](O)C[C@@]2(C)[C@H]1CC[C@]2(O)C(=O)COC(=O)CCC(=O)O -6.9%
Cc1cccc(N2CCN(S(=O)(=O)c3ccc4c(c3)CCCN4C(=O)C3CCC3)CC2)c1C -16.2%
COc1ccccc1N1CCN(C(=O)Cn2ncc3c(=O)oc4ccccc4c32)CC1 -0.617%
O=C(Nc1cccc(Cl)c1)c1c(NC(=O)C(F)(F)F)sc2c1CCCC2 -94.1%
CC(=O)Nc1cccc(NC(=O)Cn2cnc3c2c(=O)n(C)c(=O)n3C)c1 -11.8%
Cc1nc(N2CCCC2)c2c(C(=O)Nc3cccc(C)c3C)c(C)oc2n1 -19.5%
CCN(CC)c1ccc(NC(=O)C(Cc2ccccc2)NS(=O)(=O)c2ccc(Br)s2)c(C)c1 (stereo unspecified) -14.1%
COc1ccc(CCNCc2c(C(=O)O)c(C)n(Cc3ccccc3C)c2C)c(OC)c1 -11.6%
COc1ccc(S(=O)(=O)N(CC(=O)NCc2ccccc2OC)c2ccc(C)cc2)cc1 -34.4%
CCOc1ccccc1N(C)C(=O)Cn1cnc2sc(C)c(S(=O)(=O)N3CCC(C)CC3)c2c1=O -11.1%
COc1cc(OC)c(NC(=O)COCc2cc(-c3cccs3)on2)cc1Cl -14.1%
CC(C)(C)NC[C@H](O)COc1nsnc1N1CCOCC1 -8.5%
CCOCCOC(=O)c1ccc(NC(=O)/C=C/c2ccc(OC)c(OC)c2)cc1 6.41% [at 11.5 µM, percent change from vehicle, -100% = no light]
O=C(CSc1ncc2c(n1)-c1ccccc1N(Cc1ccc(F)cc1)S2(=O)=O)c1ccc(Cl)cc1 16.2%
CCc1cc2c(cc3c(=O)n(CC(=O)N4CCN(c5cc(Cl)ccc5C)CC4)ncn32)s1 -5.04%
Cc1ccc(S(=O)(=O)c2cn(C)c3cc(N4CCN(C)CC4)c(F)cc3c2=O)cc1 -5.91%
Cc1cccc(C)c1-n1ncc(C(=O)Nc2ccc3c(c2)OCCO3)c1C1CCN(C(=O)OC(C)(C)C)CC1 -41.7%
COc1ccc(Nc2c(-c3cc(Br)ccc3O)nc3ncccn23)cc1OC -25.6%
COc1ccccc1N1CCN(S(=O)(=O)c2c(C)sc3ncn(CC(=O)N(C)c4ccc(C(C)C)cc4)c(=O)c23)CC1 -7.99%
CNS(=O)(=O)c1ccc(OC)c(-c2nnc3c4ccccc4c(C)nn23)c1 -7.4%
CC(C)Oc1ccc(CNC(=O)C2CCN(C(=O)c3sccc3-n3cccc3)CC2)cc1 -23.8%
Cc1ccc(-c2noc(CNC(=O)c3ccc(C(C)(C)C)cc3)n2)cc1 -8.14%
COc1ccccc1CNC(=O)CN1C(=O)CSc2ccc(S(=O)(=O)N3CCCC3)cc21 -8.78%
Cc1ccc(C(=O)Nc2ccc(CN3CCN(C)CC3)c(C(F)(F)F)c2)cc1C#Cc1cnc2cccnn12 -22.4%
CC(C)OCCCN(Cc1ccco1)C(=O)c1cc2c(s1)-c1ccccc1OC2 -28.8%
CCN(CC)C(=O)Cn1cc(SCC(=O)Nc2cccc(C)c2)c2ccccc21 -23%
COCc1cc(C)n(CC(=O)Nc2ccc(NC(C)=O)cc2)c(=O)c1C#N -17.3%
COc1ccccc1-c1noc(-c2ccc(N3CCN(c4ccccc4)CC3)c([N+](=O)[O-])c2)n1 -14.2%
COc1ccc(N2CCN(c3cc(C)nc4nc(-c5ccc(C)cc5)nn34)CC2)cc1 -4.48%
CC1=C(C#N)C(NC(=O)c2cccc(Cl)c2)(C(F)(F)F)C(=O)N1 (stereo unspecified) -17.9%
Cc1ccc(Cl)cc1NC(=O)N1CCN(C)c2ncccc21 -15.8%
Cc1cccc(C(=O)N2CCc3cc(CNC(=O)CCc4ccccc4)ccc32)c1 -22.2%
CCOc1ccc2cc(-c3nnc(Nc4ccc(C)cc4)s3)c(=O)oc2c1 1.06%
Cc1ccccc1OCc1ccc(-c2nc(C#N)c(N3CCC(C(N)=O)CC3)o2)o1 -21.7%
CC(=O)Nc1ccc(S(=O)(=O)NCCS(=O)(=O)N2CCN(c3ccccc3F)CC2)cc1 -28.9%
COc1ccc(NC(=O)c2ccc(NC(=O)CCS(=O)(=O)c3cccs3)cc2)cc1 0.761%
COc1cccc(Nc2nc3ccc(C(=O)c4ccccc4)cc3n3c(C)nnc23)c1 -3.12%
O=C(Nc1ccc(Cl)c(-c2nc3cc(Cl)ccc3o2)c1)c1cc2ccccc2o1 18%
Cc1ccccc1NS(=O)(=O)c1nnc(NC(=O)c2ccco2)s1 -15.2%
CCOC(=O)c1c(S(=O)(=O)NCC(=O)N(C)c2ccc(C)cc2)c(C)n(C)c1C -20.6%
COc1ccc(CCC(=O)NCCc2csc(-c3cccc(C)c3)n2)cc1 -10.8%
Cc1ccc(C)c(CN2C(=O)c3ccccc3S(=O)c3ccc(C(=O)NCCC4=CCCCC4)cc32)c1 (stereo unspecified) -20.7%
Cc1ccc(C(=O)Nc2ccc3[nH]c(=O)c(=O)[nH]c3c2)cc1 -5.29%
CC(C)Oc1ccc(CNC(=O)Cn2c(-c3cccs3)cc3ccccc32)cc1 -29%
COc1cccc(C(=O)Nc2ccc(S(=O)(=O)N(Cc3ccccc3)c3ccccc3)cc2)c1 14% [at 11.5 µM, percent change from vehicle, -100% = no light]
CCS(=O)(=O)N1CCc2cc(C(=O)NCCc3ccc(OC)c(OC)c3)ccc21 -22.1%
CC(=O)c1ccc(N2CCN(C(=O)C3CCN(S(=O)(=O)c4c(C)noc4/C=C/c4ccccc4F)CC3)CC2)cc1 -14.5%
Cc1cc(C)c(S(=O)(=O)NCCc2csc3nc(-c4ccc(Cl)cc4)nn23)c(C)c1 -37.5%
Cc1ccc(NC(=O)c2sc3ncnc(N(C)C4CCCCC4)c3c2C)cc1 -12.2%
Cc1ccc(C)c(N2CCN(c3nc4ccccc4c(=O)n3-c3ccccc3)CC2)c1 -37.3%
O=c1c2c3c(sc2n(Cc2ccc(F)cc2Cl)c(=O)n1-c1ccc(Cl)cc1)CCC3 7.99%
COc1cccc(CN(C(=O)c2cccc(C)c2)C2CCS(=O)(=O)C2)c1 (stereo unspecified) -12%
CC(=O)c1ccc(NC(=O)Cn2nc(C(F)(F)F)c3c2CCCC3)cc1 -19.1%
COc1ccc(OC)c(-c2noc(N3CCN(c4cccc(C)c4C)CC3)n2)c1 -32.7%
CCSc1nn(CC(=O)Nc2cccc(Cl)c2)c(N)c1S(=O)(=O)c1ccc(OC)cc1 -28.7%
